Assay results reported in US20230295316A1 (FRED HUTCHINSON CANCER CENTER, published 2023).

Biological target: T1, Hs_CD123_6His-Avi (CD123 ECD-His-Avi fusion protein) (human, UniProt P26951 19-303)
T1 construct: The signal peptide is marked only by bold type, so its limits cannot be read here and were not guessed; also called His-Avi tagged peptide encompassing the ECD of human CD123
T1 sequence: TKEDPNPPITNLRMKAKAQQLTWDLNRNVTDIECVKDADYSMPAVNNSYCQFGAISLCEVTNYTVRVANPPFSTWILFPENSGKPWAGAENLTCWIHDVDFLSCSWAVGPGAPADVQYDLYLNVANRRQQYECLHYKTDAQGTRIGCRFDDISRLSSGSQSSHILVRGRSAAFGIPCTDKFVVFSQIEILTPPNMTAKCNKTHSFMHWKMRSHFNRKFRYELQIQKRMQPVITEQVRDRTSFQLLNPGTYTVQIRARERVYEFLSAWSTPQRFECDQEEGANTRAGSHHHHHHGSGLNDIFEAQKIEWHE
Assay: SPR (Biacore T-100), univalent affinity; antibody captured on the CM4 chip, human CD123 ECD as analyte
Procedure: FIGS. 21A-21B. Surface plasmon resonance (Biacore T-100) analyses were performed to rigorously/precisely determine univalent binding affinities of recombinant, fully human versions of the anti-human CD123 monoclonal antibodies 1B5, 1D9, and 1E3, using human IgG1 (FIG. 21A) and human IgG4 frameworks (FIG. 21B). For these experiments, a peptide encoding the complete extracellular portion of human CD123 was used, and the antibodies were captured on the biosensor chip (CM4) via a Fc gamma-specific goat anti-human IgG and amine coupling.

B1: 123-ATX1B5, fully human recombinant antibody, human IgG1 framework (antibody)
heavy: EVQLVESGGGLVQPGGSLRLSCATSGFTFSNYDMHWVRQVTGKGLEWVSGIGIAGDTYYPGSVKGRFTISREDAKNSLYLQMNSLRAEDTAVYYCATERGSSSWYNYFDYWGQGTLVTVSS[human IgG1 constant region not printed]
light: [about 100 residues not printed][about 120 residues not printed]
notes: also called 1B5 (human IgG1)
Question: What does the source list for B1?
Answer: Kd: 4.92 nM; koff: 0.00316 s⁻¹; kon: 643000 M⁻¹ s⁻¹

B2: 123-ATX1B5, fully human recombinant antibody, human IgG4 framework (antibody)
heavy: EVQLVESGGGLVQPGGSLRLSCATSGFTFSNYDMHWVRQVTGKGLEWVSGIGIAGDTYYPGSVKGRFTISREDAKNSLYLQMNSLRAEDTAVYYCATERGSSSWYNYFDYWGQGTLVTVSSASTKGPSVFPLAPCSRSTSESTAALGCLVKDYFPEPVTVSWNSGALTSGVHTFPAVLQSSGLYSLSSVVTVPSSSLGTKTYTCNVDHKPSNTKVDKRV[human IgG4 Fc with S228P (EU numbers) not printed]
light: [about 100 residues not printed][about 120 residues not printed]
notes: also called 1B5 (human IgG4)
Question: For B2, which Kd is on record?
Answer: 4.71 nM

Question: What about the koff of the same binder?
Answer: 0.00301 s⁻¹

Question: What about the kon of the same binder?
Answer: 639000 M⁻¹ s⁻¹
